The target in one experiment is T1, IL4 (human, UniProt P05112).
T1 chain: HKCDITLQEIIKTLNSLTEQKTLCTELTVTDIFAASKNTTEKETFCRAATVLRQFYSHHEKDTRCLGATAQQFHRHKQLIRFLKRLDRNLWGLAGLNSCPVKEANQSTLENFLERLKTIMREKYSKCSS

The target of the next experiment is IL13 (human, UniProt P35225).

IL13, sequence (P35225 35-146): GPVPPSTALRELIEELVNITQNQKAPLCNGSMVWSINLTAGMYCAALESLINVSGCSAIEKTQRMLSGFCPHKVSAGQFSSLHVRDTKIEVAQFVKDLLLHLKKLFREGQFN

B1: Cross-over IL13(G4S2)IL4CH1-Fc / IL4(G4S2)IL13CL (antibody)
chain 1: EVQLKESGPGLVAPGGSLSITCTVSGFSLTDSSINWVRQPPGKGLEWLGMIWGDGRIDYADALKSRLSISKDSSKSQVFLEMTSLRTDDTATYYCARDGYFPYAMDFWGQGTSVTVSSGGGGSGGGGSQVQLQQSGPELVKPGASVKISCKASGYSFTSYWIHWIKQRPGQGLEWIGMIDPSDGETRLNQRFQGRATLTVDESTSTAYMQLRSPTSEDSAVYYCTRLKEYGNYDSFYFDVWGAGTLVTVSS[letters of human IgG1 constant region not shown]
chain 2: DIQMTQSPASLSVSVGDTITLTCHASQNIDVWLSWFQQKPGNIPKLLIYKASNLHTGVPSRFSGSGSGTGFTLTISSLQPEDIATYYCQQAHSYPFTFGGGTKLEIKGGGGSGGGGSDIVLTQSPASLAVSLGQRATISCRASESVDSYGQSYMHWYQQKAGQPPKLLIYLASNLESGVPARFSGSGSRTDFTLTIDPVQAEDAATYYCQQNAEDSRTFGGGTKLEIKRTVAAPSVFIFPPSDEQLKSGTASVVCLLNNFYPREAKVQWKVDNALQSGNSQESVTEQDSKDSTYSLSSTLTLSKADYEKHKVYACEVTHQGLSSPVTKSFNRGEC
In the case of B1, the binding result with IL4 and with IL13 was “no binding” throughout.

B2: Cross-over IL13(G4S2)IL4CH1-Fc / IL4(G4S)IL13CL (antibody)
chain 1: B1 chain 1
chain 2: DIQMTQSPASLSVSVGDTITLTCHASQNIDVWLSWFQQKPGNIPKLLIYKASNLHTGVPSRFSGSGSGTGFTLTISSLQPEDIATYYCQQAHSYPFTFGGGTKLEIKGGGGSDIVLTQSPASLAVSLGQRATISCRASESVDSYGQSYMHWYQQKAGQPPKLLIYLASNLESGVPARFSGSGSRTDFTLTIDPVQAEDAATYYCQQNAEDSRTFGGGTKLEIKRTVAAPSVFIFPPSDEQLKSGTASVVCLLNNFYPREAKVQWKVDNALQSGNSQESVTEQDSKDSTYSLSSTLTLSKADYEKHKVYACEVTHQGLSSPVTKSFNRGEC
Turning to B2, in the experiment with IL13, the binding result was “no binding”.

B3: Cross-over IL13(G4S)IL4CH1-Fc / IL4(G4S2)IL13CL (antibody)
chain 1: EVQLKESGPGLVAPGGSLSITCTVSGFSLTDSSINWVRQPPGKGLEWLGMIWGDGRIDYADALKSRLSISKDSSKSQVFLEMTSLRTDDTATYYCARDGYFPYAMDFWGQGTSVTVSSGGGGSQVQLQQSGPELVKPGASVKISCKASGYSFTSYWIHWIKQRPGQGLEWIGMIDPSDGETRLNQRFQGRATLTVDESTSTAYMQLRSPTSEDSAVYYCTRLKEYGNYDSFYFDVWGAGTLVTVSS[letters of human IgG1 constant region not shown]
chain 2: B1 chain 2
For B3, in the experiment with IL13, the binding result is “no binding”.

B4: Cross-over IL13(G4S)IL4CH1-Fc / IL4(G4S)IL13CL (antibody)
chain 1: B3 chain 1
chain 2: B2 chain 2
Turning to B4, in the experiment with IL13, the binding result is on record as “no binding”.

The values are drawn from patent US20140056895 (published 2014).
